In PMC7819943, “Rice protein-binding microarrays: a tool to detect cis-acting elements near promoter regions in rice” one finds binding signal data, which are given here for 42 sequences.

This is one part of the list.

The target of the assay is T1, OsWOX13 (Oryza sativa, UniProt Q5QMM3 1-267).
T1 sequence: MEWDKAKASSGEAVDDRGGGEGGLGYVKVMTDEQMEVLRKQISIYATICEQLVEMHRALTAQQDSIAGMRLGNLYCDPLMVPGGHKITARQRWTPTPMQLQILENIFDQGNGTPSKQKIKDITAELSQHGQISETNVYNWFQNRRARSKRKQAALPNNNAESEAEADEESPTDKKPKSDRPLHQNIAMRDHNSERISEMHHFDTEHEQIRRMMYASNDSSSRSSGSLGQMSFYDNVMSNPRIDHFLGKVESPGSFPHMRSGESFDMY
Nature of the assay: protein-binding microarray (RPBM); PBS, 2% BSA, 51.3 ng/ul salmon testes DNA, 50 uM zinc acetate, 200 nM TF, 25 C, 1 h; high values mean tight binding. Conditions: protein: recombinant; tags: N-terminal polyhistidine and DsRed monomer fusion (pET32a); label: CyDye5-dUTP incorporated in the synthesized complementary strand; 3' TTTTT single-stranded linker to array surface; dsDNA, one strand shown. In a few lines:
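An Axon 4000B scanner gave the binding signal as per-feature fluorescence intensity in arbitrary units. This followed washing of a custom Agilent array that had been incubated for 1 h at 25 °C with 200 nM protein in PBS, 2% BSA, salmon testes DNA and 50 µM zinc acetate. The proteins were transcription factors fused at the N-terminus to polyhistidine and DsRed, expressed in E. coli BL21-CodonPlus and purified on Ni–NTA.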
For the sequence “TTAATTAATCGATGAGAATCAATTTCATAATCATGGAGGTCGGAGTCACCTAGTGCAG”, the binding signal is 5880 fluorescence intensity (a.u.). In the case of “GAGGATTTGAAGCCTGATTATATTTTAATCTTGTTGTACACGGAGTCACCTAGTGCAG” it was 12100 fluorescence intensity (a.u.); in that of “TTAAAATTTCTCGTGTCAATTTCAACGCTAGCATTGGCATCGGAGTCACCTAGTGCAG”, 5900 fluorescence intensity (a.u.). Consider “AAATATTGACAGATACAGCTACATGGGCATATGAGCTTAGCGGAGTCACCTAGTGCAG”, for which the binding signal is 30200 fluorescence intensity (a.u.). Next, “CATGCAATTATGAGTTAGCTTAACTTCCTGAGTTCAATTGCGGAGTCACCTAGTGCAG”: 3220 fluorescence intensity (a.u.); “TTACATTTAATTATTTGATAAAATTTGTTCGTATGTCATTCGGAGTCACCTAGTGCAG”: 19700 fluorescence intensity (a.u.); “TTTGATAAACTAAACTATTTATAAAACAATAAATATCTCACGGAGTCACCTAGTGCAG”: 8190 fluorescence intensity (a.u.). For “ATAATAATTTACTCCCGTCTGTCATTGGTGGTTTATATTGCGGAGTCACCTAGTGCAG”, the binding signal was 23900 fluorescence intensity (a.u.). Turning to “GCGCTATATCAATCAAAATACTGCCGCGGGATCTTGTTTGCGGAGTCACCTAGTGCAG”, the binding signal was 18800 fluorescence intensity (a.u.). In the case of “TTTCAATAGATTGAGGTTTAATATGTCTGTTTTGTGGTTCCGGAGTCACCTAGTGCAG” it was 40500 fluorescence intensity (a.u.); in that of “TTAGTATGTGATTAATTTAGTATTAATTATTTAACTATAACGGAGTCACCTAGTGCAG”, 19800 fluorescence intensity (a.u.); in that of “TGATTGATGATTAAATAAAATTAGTACCTAAGCAGCCACGCGGAGTCACCTAGTGCAG”, 29700 fluorescence intensity (a.u.). In the case of “GCTTCCTGATAGAAATCGCAGATGACACTGTGCCCAAACGCGGAGTCACCTAGTGCAG” it was 5020 fluorescence intensity (a.u.); in that of “TGACGACGTGATTATACGCACCGAATGTCTGAATTCCATTCGGAGTCACCTAGTGCAG”, 5150 fluorescence intensity (a.u.); in that of “AAATGCCTAAATTTGGCTCATGACTGCCATCGATGCTCTTCGGAGTCACCTAGTGCAG”, 3940 fluorescence intensity (a.u.). Next, “GCATATAATTTAAGTAATCATTTCTCCTAGATTTGCATTGCGGAGTCACCTAGTGCAG”: 25400 fluorescence intensity (a.u.); “GTTCATTGATGAGTGTGTAACTATACTAGGTTGCTTGCTTCGGAGTCACCTAGTGCAG”: 4230 fluorescence intensity (a.u.).

As for “TGTAATACATTAATTTATACCAGGTTTAAAATCAAAACTCCGGAGTCACCTAGTGCAG”, the binding signal was 8440 fluorescence intensity (a.u.). Next, “CTAATTGATGCATGCTAGTTTGTTGGAGAAAGAACAGACACGGAGTCACCTAGTGCAG”: 32900 fluorescence intensity (a.u.); “CAAAATGTAAATTATATATCACAATCATATTTCTCATGTTCGGAGTCACCTAGTGCAG”: 15400 fluorescence intensity (a.u.). In the case of “ATTTGATTTGTACGGTCGATTTAGTTAATTTGGATGTAGACGGAGTCACCTAGTGCAG”, the binding signal is 42100 fluorescence intensity (a.u.). As to “GGAATTAGACGACCTTTTCTACATGCATATAGTACTTGACCGGAGTCACCTAGTGCAG”, the binding signal is 4400 fluorescence intensity (a.u.). In the case of “TTTGATGACAATGTGATGAGATGTCTCCAAAGGAAGCCTACGGAGTCACCTAGTGCAG” it was 24400 fluorescence intensity (a.u.); in that of “TTTATCGTCAATCAAATTGTTGTCTTGGCCTTCGTTCGGACGGAGTCACCTAGTGCAG”, 23500 fluorescence intensity (a.u.). Take “AGTTAATTAATCAGGTGCTTGCCAGCCATGAATGGACCATCGGAGTCACCTAGTGCAG”: the binding signal was 36500 fluorescence intensity (a.u.).

Turning to “CCCACCTATATATAATTGCCTCATCTCCTCTTCTTCCCTCCGGAGTCACCTAGTGCAG”, the binding signal was 3710 fluorescence intensity (a.u.). Next, “ATATGATAGAATGGAACTACTAAAAGTAAGAGGAGGGTCACGGAGTCACCTAGTGCAG”: 13200 fluorescence intensity (a.u.).

Regarding “ATCTATCCTCTCCAATCATAAATCCTTGATGTTTTGAATTCGGAGTCACCTAGTGCAG”, the binding signal is 7610 fluorescence intensity (a.u.). Next, “TCCTTAAATTTGTAGGGTTGTGTCATATAGGTCCCTAAACCGGAGTCACCTAGTGCAG”: 5800 fluorescence intensity (a.u.); “GTAGCCTTTAATTAAGAGTGATATTTTATTGAATCCTCCTCGGAGTCACCTAGTGCAG”: 5280 fluorescence intensity (a.u.); “CAGATTTGATGAAGATGGTGGCCACTGCTTCCTCAATGCACGGAGTCACCTAGTGCAG”: 8250 fluorescence intensity (a.u.). For “AAATCATTAATAGTGCGTGATTAATTGAGTATTAATTATTCGGAGTCACCTAGTGCAG”, the binding signal was 8480 fluorescence intensity (a.u.).

On to “CAATGATGTTGATGTATTATTATTAAACAATGATATTGATCGGAGTCACCTAGTGCAG”, for which the binding signal is 4250 fluorescence intensity (a.u.). In the case of “AAATGATTTGATCTAAATTGATAAGTTACTGAGGAGTGCGCGGAGTCACCTAGTGCAG” it was 64800 fluorescence intensity (a.u.). “GTCTAATTGTGATTTTATATTTTAATTAATTATATATTGTCGGAGTCACCTAGTGCAG”: the binding signal was 34800 fluorescence intensity (a.u.).

In the case of “CATGAATTGGAAGATTTGATGCACTGATACTCCATGAAGACGGAGTCACCTAGTGCAG”, the binding signal was 8060 fluorescence intensity (a.u.). Next, “ATAGATAGATAGATCGCTCCGCACATACTATGGTGCTCACCGGAGTCACCTAGTGCAG”: 12500 fluorescence intensity (a.u.). In the case of “ACGATAATTAGTAGTAGTACCCAACTCGAGGAGGTGGAGACGGAGTCACCTAGTGCAG”, the binding signal is 20800 fluorescence intensity (a.u.).

For the sequence “ACAAAGTAATTAAACAAAAGTAGTATATATATACCTTTATCGGAGTCACCTAGTGCAG”, the binding signal is 5480 fluorescence intensity (a.u.). Next, “AGAAAACTAATTATAGAGTATATATAAAGCTGTACACGAGCGGAGTCACCTAGTGCAG”: 5750 fluorescence intensity (a.u.); “AATGAAAACTAATTAAGGCTTAAAATCCAAATTTGAGGGCCGGAGTCACCTAGTGCAG”: 7030 fluorescence intensity (a.u.); “GATGTGGGATGGATTTGTGGTGATTGAGAGGGTTTGAAAGCGGAGTCACCTAGTGCAG”: 17800 fluorescence intensity (a.u.).
